# Experimental data reported in US20230349919A1.
# B1: Table 1 Line # 45 antibody (SP_Plasma_cell) (antibody, human IgG4, V domains shown)
# VH: EVQLVESGGGLVQPGRSLRLSCAASGFTFDDYAMYWVRQTPGKGLEWVSGITWNSGSIGYAASVQGRFTISRDNAKNSLYLQMNSLRAEDTALYYCTKDLGGSYLGFDYWGQGTLVTVSS
# VL: EIVMTQSPGTLSLSPGERATLS[sequence of about 80 residues omitted]FGQGTKLEIK
# B2: Table 1 Line # 9 antibody (BM_Plasma_cell) (antibody, human IgG4, V domains shown)
# VH: QVQLVQSGAEVKKPGASVKVSCKASGYTFTSYDINWVRQATGQGLEWVGWMNPNSGNTGYAQKFQGRVTMTRNTSITTAYMELSSLRSEDTAVYYCARPYSRATGYFDLWGRGTLVTVSS
# VL: [sequence of about 100 residues omitted]FTFGPGTKIDIK
# B3: Table 1 Line # 51 antibody (SP_Plasma_cell) (antibody, human IgG4, V domains shown)
# VH: EVQLVESGGGLVQPGGSLRLSCAASGFTFSSHAMHWVRQAPGKGLEYVSGISSNGGSTYHADSVKGRFTISRDNSKNTLYLQMGSLRAEDMAVYYCARYSSRRYYGMDVWGQGTTVTVSS
# VL: [sequence of about 100 residues omitted]TFGQGTKLEIK
# Target: human IL-6Rα (hIL-6Rα), barcoded negative control antigen (human) (UniProt P08887)
# Assay: barcoded-antigen count on source cell (scRNA-seq)
# Chain of UniProt P08887 (P08887 20-358 limits assumed): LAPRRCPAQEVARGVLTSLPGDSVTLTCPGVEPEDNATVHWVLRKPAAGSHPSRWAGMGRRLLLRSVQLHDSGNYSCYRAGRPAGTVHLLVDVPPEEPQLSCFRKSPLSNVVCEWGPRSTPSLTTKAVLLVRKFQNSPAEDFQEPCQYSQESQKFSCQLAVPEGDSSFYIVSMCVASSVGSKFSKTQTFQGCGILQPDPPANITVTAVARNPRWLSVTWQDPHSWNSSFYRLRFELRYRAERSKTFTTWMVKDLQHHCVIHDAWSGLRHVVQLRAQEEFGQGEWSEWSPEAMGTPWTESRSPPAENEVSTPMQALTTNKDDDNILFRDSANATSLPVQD
row,REGN78.L15 ab raw [counts],Binder
1,25,B1
2,890,B2
3,3,B3

# Target: human IL-4Rα (hIL-4Rα) monomeric protein (human) (UniProt P24394)
# Assay: barcoded-antigen count on source cell (scRNA-seq)
row,REGN560.L15 ab raw [counts],Binder
1,1780,B1
2,3570,B2
3,897,B3
